The whole screen tested about 1,600 compounds, of which about 25 (2%) were called active. The inconclusive results got no clear call from the source; some entries with a clear call stand among them for comparison. Calls follow the shape of the dose curve; as a rule, active = well fitted inhibition curve with a large enough effect; inconclusive = small, poorly fitted or top-dose-only effect, or effect the other way; inactive = no such curve, though single readings can be large or run the other way. Potencies beside an inconclusive call are fits to weak or partial responses and may not hold up.
Each molecule was assayed against Runt-related transcription factor 1 (Homo sapiens) + Core-binding factor subunit beta (Homo sapiens) (UniProt Q01196+Q13951) (assay: qHTS Assay for Compounds Blocking the Interaction Between CBF-beta and RUNX1 for the Treatment of Acute Myeloid Leukemia: Hit Validation with Orthogonal Assay). Settings: CBFbeta-RUNX1 binding orthogonal assay, biochemical; series mostly up to 41 µM.
Outline: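 Compound was incubated for 30 min with biotin-RUNX1 plus His6-CBF-beta at 30 nM per protein. Binding was then detected by TR-FRET between terbium anti-His antibody and 5 nM streptavidin-XL665, read after 90 min, in the same buffer as the AlphaScreen primary assay.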
% is scaled to controls: 0 for no effect and ±100 for the full control effect; potency is read from the fitted curve at half-maximal effect; tags tell the direction and shape of the fitted curve.

Sequence of UniProt Q01196 (Q01196 whole entry, looked up): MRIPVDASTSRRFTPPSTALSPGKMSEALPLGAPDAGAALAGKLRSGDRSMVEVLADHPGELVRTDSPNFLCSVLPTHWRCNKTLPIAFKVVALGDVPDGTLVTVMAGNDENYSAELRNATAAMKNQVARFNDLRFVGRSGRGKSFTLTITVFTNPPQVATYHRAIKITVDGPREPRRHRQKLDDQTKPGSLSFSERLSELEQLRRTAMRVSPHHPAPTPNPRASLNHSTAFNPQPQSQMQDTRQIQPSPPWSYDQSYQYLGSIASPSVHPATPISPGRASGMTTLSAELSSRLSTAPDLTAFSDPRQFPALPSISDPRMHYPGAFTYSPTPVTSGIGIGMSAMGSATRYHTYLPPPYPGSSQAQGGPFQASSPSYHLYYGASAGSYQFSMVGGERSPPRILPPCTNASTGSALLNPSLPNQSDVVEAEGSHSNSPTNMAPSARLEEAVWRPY
Sequence of UniProt Q01196 (Q13951 whole entry, looked up): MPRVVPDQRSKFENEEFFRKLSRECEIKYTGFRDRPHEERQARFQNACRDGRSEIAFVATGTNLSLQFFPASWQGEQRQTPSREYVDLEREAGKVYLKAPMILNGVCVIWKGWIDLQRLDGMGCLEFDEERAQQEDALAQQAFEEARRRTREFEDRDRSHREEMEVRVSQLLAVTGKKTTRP

Structure (SMILES)	Potency
O=C1CSC(=S)N1/N=C/c1ccc(O)c(O)c1O	inconclusive: 0.0126 µM [inhibitor, full curve, poor fit]
O=C(O)C1Nc2c(O)cccc2C2C=CCC12 (stereo not given)	active: 3.55 µM
COc1cc(/C=N/NC(=O)c2cncc(Br)c2)cc([N+](=O)[O-])c1O	inconclusive: 15.8 µM [activator, full curve]
COc1cc(O)c2c(c1)oc(=O)c1c3cc(O)c(O)cc3oc21	inconclusive: 35.5 µM [activator, partial curve, poor fit]
Oc1csc(Cc2nc(-c3ccccc3F)cs2)n1	inconclusive: 0.0002 µM [inhibitor]
O=C(O)COCCN1CCN(C(c2ccccc2)c2ccc(Cl)cc2)CC1 (stereo not given)	inconclusive: 4.99 µM [inhibitor, partial curve, poor fit]
CC(C)=CC[C@@H](O)C1=CC(=O)c2c(O)ccc(O)c2C1=O	inconclusive: 5.43e-05 µM [activator, full curve]
COCCCN1CCN(C2Cc3ccccc3Sc3ccc(Cl)cc32)CC1 (stereo not given)	inconclusive: 12.2 µM [inhibitor, partial curve]
Cn1nc2c3ccccc3n(Cc3ccc(F)cc3)c2nc1=S	inactive
NC[C@@H](O)c1ccc(O)c(O)c1	inconclusive: 14.1 µM [inhibitor, full curve]
Cc1nc2ccc(NC(=S)N3CCOCC3)cc2nc1C	active: 12.6 µM
COC(=O)/C(=C\Nc1ccc(Oc2ccc(F)cc2F)nc1)NC(=O)c1ccccc1	inactive
COc1cc(OC)c(-c2c3cc(O)c(=O)cc-3oc3cc(O)c(O)cc23)cc1OC	inconclusive: 14.1 µM [activator, partial curve]
O=c1cc2c(=O)oc3cc(O)c(O)oc3c2c(O)c1O	inconclusive: 1.12 µM [inhibitor, full curve]
CNC(=S)N1N=C2c3ccccc3CCC2C1c1ccccc1Cl (stereo not given)	inconclusive: 6.31 µM [inhibitor, single point]
Nc1c(Cl)ncnc1NCC(O)CO (stereo not given)	inactive
CCCc1cc(=O)oc2c(CN(CC)CC)c(O)c(Cl)cc12	inactive
Cc1ccccc1NC(=S)N(CCN(C)C)C(C)c1ccccn1 (stereo not given)	inconclusive: 5.01 µM [inhibitor, full curve]
COc1cccc2c1C(=O)c1c(O)c3c(c(O)c1C2=O)C[C@@](O)(C(C)=O)C[C@@H]3O[C@H]1C[C@H](N)[C@H](O)[C@H](C)O1	inconclusive: 15.8 µM [activator, full curve]
O=c1oc2c(O)c(O)cc3c(=O)oc4c(O)c(O)cc1c4c23	inconclusive: 0.562 µM [inhibitor, full curve]
CC(c1ccccn1)N(CCN(C)C)C(=S)Nc1cccc(F)c1 (stereo not given)	inconclusive: 3.98 µM [activator, full curve, poor fit]
Cc1cc(=O)n2[nH]c(CCC(=O)O)nc2n1	inactive
Cn1cccc1/C=C1\SC(=S)N(NC(=O)c2ccc(F)cc2)C1=O	inactive
O=C1OCC2OC(O)C(O)C(O)C2OC(=O)c2cc(O)c(O)c(O)c2-c2c(O)c(O)c3oc(=O)c4c(c(O)c(O)c5oc(=O)c2c3c54)-c2c1cc(O)c(O)c2O (stereo not given)	active: 0.398 µM
C=C1c2cccc(O)c2C(O)=C2C(=O)[C@]3(O)C(O)=C(C(N)=O)C(=O)[C@@H](N(C)C)[C@@H]3[C@@H](O)[C@H]12	inconclusive: 31.6 µM [inhibitor, full curve, poor fit]
COc1ccc(NS(=O)(=O)c2ccc(Cl)s2)cn1	inactive
CC(=O)Oc1cc(-c2coc3cc(OC(C)=O)c(OC(C)=O)c(OC(C)=O)c3c2=O)cc(OC(C)=O)c1OC(C)=O	inconclusive: 3.16 µM [inhibitor, full curve]
Nc1ccc(N)c(C(=O)O)c1	inconclusive: 1.26 µM [inhibitor, full curve]
CN(c1ccccn1)c1ncnc2[nH]ncc12	inconclusive: 22.4 µM [inhibitor, single point]
Cc1cccc(C)c1NC(=S)N(CCN(C)C)C(C)c1ccccn1 (stereo not given)	inconclusive: 2.51 µM [inhibitor, full curve]

Source: PubChem BioAssay AID504375 (National Center for Advancing Translational Sciences (NCATS), 2011)
